In PubChem BioAssay AID686978 (National Center for Advancing Translational Sciences (NCATS), 2013):
Out of some 420,000 compounds screened, about 64,000 (15%) were called active. Inconclusive results, whose numbers are uncertain, are shown with a selection of clear calls. Calls follow the shape of the dose curve; as a rule, active = well fitted inhibition curve with a large enough effect; inconclusive = small, poorly fitted or top-dose-only effect; inactive = flat fitted curve, though single readings scatter. No potency is given beside an inconclusive call; the fits are too rough.

Assay: qHTS for Inhibitors of human tyrosyl-DNA phosphodiesterase 1 (TDP1): qHTS in cells in absence of CPT; also: nearly all actives have a fitted effect of over 55% in size
Details: DT40 Tdp1-/- hTDP1 cells, no CPT, ATP luminescence, 48 h; activity change, negative = growth inhibition: at 46.2 µM (top of the series) unless noted
Method in brief: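 Growth kinetics read by CellTiter-Glo luminescence after ≥48 hr at 37 °C. Cells: DT40 Tdp1-/- stably carrying human TDP1, 400 per well, compound exposure in the absence of CPT (DMSO vehicle).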
% is scaled to controls: 0 for no effect and ±100 for the full control effect; potency is read from the fitted curve at half-maximal effect; tags tell the direction and shape of the fitted curve.

SMILES | Potency | activity change, negative = growth inhibition
O=[N+]([O-])c1ccc2c(c1)C(N1CCN(CCO)CC1)Cc1ccc(F)cc1S2 (centres undefined) | inconclusive [inhibitor, single point] | –
CCN(CC)S(=O)(=O)c1ccc(C(=O)NCC2CCCCC2)cc1 | inconclusive [inhibitor, single point] | –
CCOc1ccc(C(=O)NCC(C)NC(=O)c2ccc(OCC)cc2)cc1 (centres undefined) | – | inactive: -6.28%
C[C@H](CO)N1C[C@H](C)[C@H](CN(C)C(=O)Nc2ccc(-c3cccs3)cc2)OCc2cnnn2CCCC1=O | inconclusive [inhibitor, partial curve, poor fit] | –
COc1ccccc1C(=O)Nc1ccccc1C(=O)OCc1cc(=O)n2c(C)csc2n1 | – | inactive: -0.544%
N#CC1=C(N)n2c(s/c(=C\c3ccco3)c2=O)=C(C#N)C1c1ccco1 (centres undefined) | inconclusive [inhibitor, single point] | –
COc1ccc(C(C(=O)Nc2ccc3c(c2)OCO3)N(C)C(=O)Cc2c[nH]c3ccccc23)cc1 (centres undefined) | inconclusive [inhibitor, single point] | –
O=C(Nc1ccc(F)cc1)C(c1cc2ccccc2o1)N1CCN(c2cccc(C(F)(F)F)n2)CC1 (centres undefined) | inconclusive [inhibitor, single point] | –
CCOc1ccc(S(=O)(=O)N/N=C(\C)c2ccc(Cl)c(Cl)c2Cl)cc1 | – | inactive: -21.3%
O=C(C[C@H]1CC[C@H]2[C@@H](COC[C@@H](O)CN2Cc2cc(F)ccc2F)O1)NCc1ccc(Cl)cc1 | inconclusive [inhibitor, single point] | –
Cc1c(C)c2ccc(O[C@@H]3O[C@H](CO)[C@H](O)[C@H](O)[C@H]3O)c(C)c2oc1=O | – | inactive: -10.3%
COc1ccc(Cc2nnc(SC)[nH]c2=O)cc1 | – | inactive: 13.9%
O=c1c2ccccc2oc2ccc(C#CC3(O)CCCCC3)cc12 | inconclusive [inhibitor, single point] | –
Cc1cccc2c1-c1sc(C(=O)Nc3ccccc3N3CCN(C)CC3)cc1CO2 | active: 18.4 µM | –
CCOC(=O)C1(CCc2ccccc2)CCN(C(=O)C2CCCO2)CC1 (centres undefined) | inconclusive [inhibitor, partial curve] | –
Cc1cccc(NC(=O)CSc2ccc(-c3ccccn3)nn2)c1C | inconclusive [inhibitor, single point] | –
CCOc1ccc(CNCCN2CCCC2)cc1 | active: 20.6 µM | –
CCN1C(=O)[C@H]2[C@H]3CN=C(SCc4ccccc4)N3[C@@](Cc3ccccc3)(C(=O)OC)[C@H]2C1=O | inconclusive [inhibitor, single point] | –
Cc1cc(C)cc(N=c2c([N+](=O)[O-])nn(-c3ccc(Cl)cc3)n2O)c1 | active: 14.6 µM | –
COc1ccc(-n2ncc(Cl)c(Cl)c2=O)cc1 | active: 2.91 µM | –
O=C(NCc1ccccc1)C1=C[C@@H](c2ccc(Br)cc2)C[C@@H](OCCCCO)O1 | inconclusive [inhibitor, single point] | –
CC(C)Cn1nc(NC(=O)c2cccs2)c2cc3ccccc3nc21 | active: 8.2 µM | –
Cc1ccc(CNC(=O)CS(=O)(=O)CC(=O)O)cc1 | – | inactive: 31.3%
Cc1ccc(C)c(NC2CCCCC2NS(=O)(=O)c2ccccc2)c1 (centres undefined) | inconclusive [inhibitor, single point] | –
CS(=O)(=O)c1cccc(C(=O)Nc2ccc(-c3nc4ccccc4[nH]3)cc2)c1 | active: 7.31 µM | –

SMILES | Potency | activity change, negative = growth inhibition
C=CCNc1nc(C(=O)OCC(=O)NCc2cccc(Cl)c2)cs1 | – | inactive: 5.38%
COc1ccc(-c2csc(NC(=O)CN3C(=O)CCC3=O)n2)c(OC)c1 | – | inactive: -2.68%
COc1cc(C)nc(OCCNC(=O)COc2ccc(Cl)cc2Cl)n1 | inconclusive [inhibitor, single point] | –
Cc1ccc(CNC(=O)CCCn2c(=O)c3ccccc3n(Cc3ccccc3Cl)c2=O)cc1 | inconclusive [inhibitor, partial curve] | –
COc1ccc(S(=O)(=O)N2CC(C(=O)O)Oc3ccccc32)cc1 (centres undefined) | – | inactive: -19.1%
CC(C)=CCc1c(O)cc2c(=O)c3ccc(O)cc3oc2c1O | inconclusive [inhibitor, single point] | –
CCCCNC(=O)c1cc(-c2ccc(F)cc2)on1 | inconclusive [inhibitor, partial curve] | –
O=C(Nc1nnc(CCN2CCCCC2)s1)c1cccc(Cl)c1 | – | inactive: -6.55%
O=C(C=Cc1ccccc1)c1cccs1 | active: 16.4 µM | –
O=C(NCC1CCCO1)c1cn(-c2ccccc2)nc1-c1ccc(F)cc1 (centres undefined) | – | inactive: -1.43%
CC(=O)c1ccc(NC(=O)c2ccn(C(=O)OCC(C)C)n2)cc1 | inconclusive [inhibitor, single point] | –
Oc1ccc(Cc2ccc(Cl)cc2)c(O)c1 | inconclusive [inhibitor, single point] | –
O=C(Cn1c(=O)n(CCCS(=O)(=O)C2CCCCC2)c(=O)c2ccccc21)Nc1ccccc1F | – | inactive: -8.97%
COc1ccc(N2CCN(C(=O)C3CCC(Cn4c(=S)[nH]c5ccccc5c4=O)CC3)CC2)cc1 (centres undefined) | active: 23.1 µM | –
CCCOc1ccc(C(=O)C(c2ccccc2)N2CCOCC2)cc1 (centres undefined) | inconclusive [inhibitor, single point] | –
Cc1cc(NC(=O)C(C)SCC(=O)Nc2ccc(Br)cc2Br)no1 (centres undefined) | active: 13 µM | –
CSc1nc(C)cc(OCC(=O)N/N=C/c2ccccc2O)n1 | inconclusive [inhibitor, full curve, poor fit] | –
CCC(=O)N1c2ccc(S(=O)(=O)CCC(=O)NCCC3=CCCCC3)cc2CC1C (centres undefined) | inconclusive [inhibitor, partial curve] | –
Nc1nonc1-c1nc2ccccc2n1CC(=O)N1CCCCC1 | inconclusive [inhibitor, single point] | –
CCCOc1ccc(F)cc1-c1cc(C(=O)NCc2cc(OC)cc(OC)c2)[nH]n1 | inconclusive [inhibitor, single point] | –
Cc1cc(C)c(-c2csc(-c3cc4ccccc4oc3=O)n2)cc1C | inconclusive [inhibitor, single point] | –
CCn1c(SCC(=O)NC2CCCC2)nnc1-c1ccccn1 | – | inactive: 4.71%
CCCCn1c(N)c(N(CCOC)C(=O)c2cccc(S(=O)(=O)N(CC)c3ccccc3)c2)c(=O)[nH]c1=O | inconclusive [inhibitor, single point] | –
N#C/C(=C\c1ccc(OCc2ccc(C(=O)O)cc2)cc1)C(=O)NCc1ccccc1 | – | inconclusive: -31.2% [inhibitor]
CC1Cc2cc(/C(O)=C3\C(=O)C(=O)N(CCN4CCOCC4)C3c3ccccc3F)ccc2O1 (centres undefined) | – | inactive: 1.69%

SMILES | Potency | activity change, negative = growth inhibition
CC(CCc1ccccc1)NCC(O)c1cccc([N+](=O)[O-])c1 (centres undefined) | inconclusive [inhibitor, single point] | –
Cc1ccc(S(=O)(=O)N2CCC(C(=O)OCC(=O)N(Cc3ccccc3)C(C)C)CC2)cc1C | inconclusive [inhibitor, single point] | –
COc1ccc(S(=O)(=O)Nc2ccccc2N2CCOCC2)cc1OC | – | inactive: -7.36%
CCSc1nnc(-c2cc3c(s2)-c2ccccc2CC3)o1 | – | inactive: -24%
COc1ccc(C(CNC(=O)c2cccc(S(=O)(=O)Nc3ccccc3OC)c2)N2CCCCC2)cc1 (centres undefined) | inconclusive [inhibitor, single point] | –
CN1CCC(N(Cc2cccs2)c2ccccc2)CC1 | inconclusive [inhibitor, single point] | –
Oc1cccnc1Sc1cccc(C(F)(F)F)c1 | inconclusive [inhibitor, single point] | –
Cc1csc(Nc2ccccc2)n1 | – | inactive: -14.5%
CC1CN(c2cc(=O)n(Cc3ccc(F)cc3)c(=O)[nH]2)CC(C)O1 (centres undefined) | – | inactive: -0.502%
Cc1ccc(N2CCN(CCCN3C(=O)C4CCCN4C3=O)CC2)cc1 (centres undefined) | – | inactive: -1.26%
COc1ccc(-c2cc(C(=O)N3CC(C)CC(C)C3)c3ccccc3n2)cc1OC (centres undefined) | inconclusive [inhibitor, single point] | –
CCCN1CCN(C(=O)c2cc(COc3ccc(F)cc3F)on2)CC1 | – | inconclusive: -30.3% [inhibitor]
CN(CC(=O)Nc1c(Cl)cccc1Cl)C(=O)CNC(=O)C1CCCCC1 | – | inactive: -15.4%
COCCNC(=S)N/N=C/c1ccc(OCc2ccc(C(=O)OC)cc2)cc1 | – | inactive: -1.75%
COc1ccc(C)cc1NC(=S)Nc1ccccc1SC | – | inactive: 4.85%
CN(C)/C=N/c1cnc(C(=O)c2ccc(Cl)cc2)n1C | inconclusive [inhibitor, full curve, poor fit] | –
Nc1c(S(=O)(=O)c2ccccc2)cnc2c(-c3ccc(F)cc3)cnn12 | – | inactive: 1.5%
CCOC(=O)c1sc(NC(=O)C(CC)Sc2nnc3c4ccccc4n(C(C)C)c3n2)nc1C (centres undefined) | inconclusive [inhibitor, single point] | –
O=C(NCCc1ccccc1)c1c2c(nc3ccccc13)C(=O)N(C1CCCCC1)C2 | active: 18.4 µM | –
CCN(c1ccccc1)S(=O)(=O)c1ccc2c(c1)OCCO2 | inconclusive [inhibitor, partial curve] | –
C=CCn1c(COc2ccc(OC)cc2)nnc1SCn1nnc2ccccc2c1=O | inconclusive [inhibitor, partial curve] | –
O=C(Nc1cccc(C(=O)N2CCCc3ccccc32)c1)c1ccccc1 | active: 20.6 µM | –
CC(C)c1cc(C(=O)N/N=C/c2ccco2)n[nH]1 | – | inactive: 7.37%
COc1ccc(-c2oc3c(c2C#CCCCCO)C(OCCO)CC3)cc1 (centres undefined) | inconclusive [inhibitor, single point] | –
